Results from the supplement of paper PMC3334620.
The full ranking holds about 33,000 sequences; the median of “E-score (-0.5 to 0.5)” is about -0.041, and the highest 2% start at about 0.37. The list shows a part of the results.

The sequences below were run against T1, Ecm22 (UniProt Q05958) (assay: PBM E-score (8-mer binding enrichment) (E-score (-0.5 to 0.5)); higher = stronger / more preferred TF binding; most listed sequences are background and not binding sites). Details: protein concentration: 200 nM; construct: GST-full length.
T1 sequence: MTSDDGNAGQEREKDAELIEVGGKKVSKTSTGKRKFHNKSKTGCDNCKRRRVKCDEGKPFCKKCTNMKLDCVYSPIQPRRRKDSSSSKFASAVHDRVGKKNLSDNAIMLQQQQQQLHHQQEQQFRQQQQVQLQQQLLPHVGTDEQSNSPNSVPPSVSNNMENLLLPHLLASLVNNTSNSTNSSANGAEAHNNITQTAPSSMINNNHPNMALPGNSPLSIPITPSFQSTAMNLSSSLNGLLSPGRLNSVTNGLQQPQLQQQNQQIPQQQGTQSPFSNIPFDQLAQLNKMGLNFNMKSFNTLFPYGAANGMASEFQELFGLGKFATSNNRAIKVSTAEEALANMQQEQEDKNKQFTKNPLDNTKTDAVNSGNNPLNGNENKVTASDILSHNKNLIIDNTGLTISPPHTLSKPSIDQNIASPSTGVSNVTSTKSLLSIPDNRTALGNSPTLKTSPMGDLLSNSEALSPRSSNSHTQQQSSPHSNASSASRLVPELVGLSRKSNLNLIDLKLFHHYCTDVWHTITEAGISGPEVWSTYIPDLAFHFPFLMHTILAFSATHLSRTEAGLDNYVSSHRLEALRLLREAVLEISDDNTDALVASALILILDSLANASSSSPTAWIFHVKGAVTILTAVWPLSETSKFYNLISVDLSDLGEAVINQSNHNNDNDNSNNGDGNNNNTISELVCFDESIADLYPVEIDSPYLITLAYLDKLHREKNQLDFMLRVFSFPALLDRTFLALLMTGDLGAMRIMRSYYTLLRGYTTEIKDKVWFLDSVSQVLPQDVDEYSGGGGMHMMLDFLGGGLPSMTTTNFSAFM
How it was run: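 GST-tagged yeast TFs (full-length or DNA-binding domain) were made by PURExpress in vitro transcription/translation and applied at about 100-200 nM to universal all-10-mer Agilent arrays. The arrays were made double-stranded by primer extension, on fresh or once-stripped slides. Bound protein was detected with fluorescent anti-GST, and scans were normalised with masliner. Each ungapped eight-base word, pooled with its reverse complement, received an E-score (modified Wilcoxon-Mann-Whitney statistic) from the Universal PBM Analysis Suite.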

Row | Sequence | PBM E-score
1 | ACTCGTAA | 0.437
2 | ATCTGGCG | -0.196
3 | GAGGCGGA | -0.00549
4 | CCAACAGC | -0.198
5 | AAGTACCC | -0.0864
6 | CATATATC | 0.0903
7 | CGCTGGTC | -0.19
8 | ATCTCTGG | -0.189
9 | AGGTGTAA | -0.0655
10 | CCAGACAG | -0.153
11 | TGGTGACA | -0.157
12 | ATCGCGAT | 0.211
13 | ACTCCCCT | -0.127
14 | CGCCACAA | 0.0727
15 | CAAAGTGC | -0.186
16 | GATCCTAC | 0.087
17 | CTGTGGCA | -0.179
18 | TAGATCCA | -0.0355
19 | GGGGCCGA | -0.171
20 | ACTATCAC | 0.0506
21 | AAGGTACT | 0.0334
22 | TCGCCACA | 0.099
23 | CGTGATTC | -0.0551
24 | ACGGGGGC | 0.0814

Row | Sequence | PBM E-score
25 | CCTTTGAA | -0.207
26 | CATAGTAA | 0.0989
27 | AGTGGTCG | 0.106
28 | TAGTTCAA | -0.0864
29 | CCTATACG | 0.465
30 | GGAGTCCC | -0.219
31 | AACTCACG | 0.088
32 | TAGTGAGA | 0.0501
33 | GGGAAGGA | -0.0877
34 | CGGCGGTA | 0.184
35 | AAAAAATG | 0.0766
36 | GTTATAGA | -0.0217
37 | CCAACGGC | -0.277
38 | ATCTAACA | 0.0717
39 | ATGGAGCG | 0.156
40 | CCCTATAC | 0.257
41 | CCCGGTGC | -0.248
42 | ATTGGCGG | -0.102
43 | CGGAAGCA | 0.121
44 | ATCGGACA | 0.17
45 | ACCCCAAG | -0.118
46 | CGGATTAG | -0.0627
47 | GCGGCTGA | -0.0382
48 | TCCGCAAA | -0.0567

Row | Sequence | PBM E-score
49 | AACGTCCA | -0.163
50 | AAGATCTA | -0.0485
51 | GACCTTAC | 0.0833
52 | CGTGAATA | 0.0133
53 | CAGGAAGC | -0.0389
54 | GCGTGCAA | 0.0203
55 | AAGCTGGG | -0.271
56 | AGTGCCAC | -0.203
57 | AAAACCGG | -0.0622
58 | AGATGTCC | 0.0385
59 | GAGTAAAA | -0.0405
60 | ACTAAATG | -0.181
61 | GCTGGACA | -0.213
62 | TGGGACCA | -0.27
63 | AGAGCCAA | -0.127
64 | AAAAAACC | -0.126
65 | CTAAGACC | -0.192
66 | CTCCATAA | -0.217
67 | AAGTGCCG | -0.0924
68 | CGCTGAAA | -0.0237
69 | AGCTATAT | 0.0477
70 | GGGCGAGA | -0.171
71 | TCAATTCA | -0.0442
72 | GCCTCCTA | -0.374

Row | Sequence | PBM E-score
73 | CCCTTCCC | -0.234
74 | CCGCGAGG | 0.183
75 | CTCTTCGA | 0.083
76 | AGCGGACG | 0.159
77 | AGTCTCCC | -0.253
78 | GGCAGGAA | -0.144
79 | GTACGGTA | 0.385
80 | ACCAAGAC | -0.0894
81 | ATCCGAAA | 0.195
82 | TAGCCTAA | -0.077
83 | GAGGCGGC | -0.059
84 | ACTGGTGC | -0.021
85 | GTAGGGAC | -0.0987
86 | CATATGAG | -0.123
87 | AGTGCAAG | 0.198
88 | AGCGAGTC | 0.171
89 | ATGGCCTC | -0.109
90 | AACCGAGC | 0.355
91 | GAGAATGC | 0.214
92 | ACAACGCC | -0.0621
93 | TCAATAGA | -0.19
94 | CGGCCGAG | 0.112
